# Laboratory results reported in PubChem BioAssay AID902 (National Center for Advancing Translational Sciences (NCATS), 2007).
# Among all 130,000 compounds or so, about 1,900 (1.5%) were called active. This list was built around the results that the source calls inconclusive (neither active nor inactive); the mix of calls is not that of the screen. The call rests on the fitted dose curve; in most records, active means well fitted cell-killing curve with a large enough effect; inconclusive means small, poorly fitted or top-dose-only effect; inactive means no such curve, though single readings can be large or run the other way. Where the call is inconclusive, the potency comes from a doubtful curve fit.
# Experiment: qHTS Screen for Compounds that Selectively Target Cancer Cells with p53 Mutations: Cytotoxicity of p53ts Cells at the Nonpermissive Temperature; further: nearly all actives have a fitted effect of over 55% in size
# Conditions: H1299-p53A138V viability at 39C, ATP luminescence, 24 h; activity change, negative = cell killing: at 46.1 µM (top of the series)
# On the % scale 0 is the no-effect control and ±100 the full control effect; potency means the concentration at half of the fitted maximal effect; tags describe the fitted curve by direction and shape.
Structure (SMILES),"activity change, negative = cell killing",Potency
Cc1cccc(N2CCN(S(=O)(=O)c3ccc(-c4cc(C(F)(F)F)on4)s3)CC2)c1C,inactive: 11%,–
COc1ccc(-c2nc3cnc(Oc4cccc(Cl)c4)nc3n(CCC#N)c2=O)cc1,inactive: 0.98%,–
CCOCC(=O)Nc1nc2ccc(OC)cc2s1,–,"inconclusive: 20 µM [cytotoxic, single point]"
Cc1cc2c(cc1C)NC(CC(=O)Nc1cccc(Cl)c1)C(=O)N2 (centres undefined),–,"inconclusive: 20 µM [cytotoxic, single point]"
c1ccc(-c2cnc(CSc3ncnc4sccc34)o2)cc1,–,"inconclusive: 31.6 µM [cytotoxic, single point]"
Nc1[nH]c(=S)[nH]c(=O)c1N=Nc1c(Br)cc(S(N)(=O)=O)cc1Br,inactive: 9.06% [at 9.22 µM],–
CC(=O)Nc1ccc(SCC(=O)c2cc(C)n(Cc3cccs3)c2C)cc1,–,active: 2.51 µM
COc1ccccc1-c1ccc(Nc2cccc(C(F)(F)F)c2)nn1,inactive: 7.44%,–
CCc1ccc2c(c1)NC(c1ccc(C)cc1)=NC(c1cccs1)=N2,inactive: -20.3%,–
CC(=O)Nc1ccc(NC(=O)c2ccc3c(c2)NC(=O)c2ccccc2S3)cc1,–,"inconclusive: 0.005 µM [cytotoxic, full curve, poor fit]"
Nc1ccc(-c2nc3c(Cl)c(N)ccc3[nH]2)cc1,–,"inconclusive: 12.6 µM [cytotoxic, partial curve]"
COc1ccc(Nc2c(-c3ccc(N4CCOCC4)cc3)nc3ncccn23)cc1OC,–,"inconclusive: 31.6 µM [cytotoxic, single point]"
CC1(C(=O)NC2CCCCC2)Cc2ccccc2C(=O)N1Cc1ccccc1Cl (centres undefined),–,"inconclusive: 1.26 µM [cytotoxic, full curve]"
O=C(CCc1nc2cccnc2n1-c1ccccc1)Nc1ccc(Cl)c(Cl)c1,–,"inconclusive: 15.8 µM [cytotoxic, single point]"
CN(C)c1ccc(C2C=C(c3ccccc3)Nc3nnnn32)cc1 (centres undefined),–,"inconclusive: 10 µM [cytotoxic, single point]"
CCOc1cccc2cc(-c3cn4cc(C)ccc4n3)c(=O)oc12,–,"inconclusive: 0.631 µM [cytotoxic, full curve]"
Cc1oc2ccc(O)c(CN3CCCCC3)c2c1C(=O)Nc1cccc(C(F)(F)F)c1,–,active: 12.6 µM
Cc1cccc(CCNC(=O)c2cnc3c(C)cccn3c2=O)c1,–,"inconclusive: 3.98 µM [cytotoxic, partial curve]"
O=C(Nc1cccc(Cl)c1)N1CCC(CN2CCOCC2)CC1,inactive: -3.5%,–
FC(F)(F)c1ccccc1-c1nc(Nc2ccncc2)c2ccccc2n1,–,"inconclusive: 20 µM [cytotoxic, single point]"
COc1cccc(-c2nnc(-c3ccc(C)o3)o2)c1,–,active: 11.2 µM
CC1CCCc2sc3nc(NCc4ccco4)n4ncnc4c3c21 (centres undefined),inactive: 6.01%,–
COc1ccc2c(Sc3ccccc3)c(C(=O)NCCCN3CCCCC3)[nH]c2c1,–,"inconclusive: 25.1 µM [cytotoxic, partial curve, poor fit]"

Structure (SMILES),"activity change, negative = cell killing",Potency
COc1cc(C(=O)N2CCN(C(=O)COc3ccc4ccccc4c3)CC2)cc(OC)c1OC,inactive: -27%,–
Cc1cccc(NC(=O)c2cc3ccccc3c(=O)o2)n1,–,"inconclusive: 2.51 µM [cytotoxic, full curve, poor fit]"
Oc1[nH]c2ccccc2c1C=Nc1ccc2c(c1)OCCO2,–,active: 12.6 µM
COc1ccc(-n2nc3c(N4CCCC(C(=O)NCc5ccc(C)cc5)C4)nnc(C)c3c2C)cc1 (centres undefined),–,"inconclusive: 31.6 µM [cytotoxic, single point]"
CC(C)Cn1cc(NC(=O)Nc2cccc(C(F)(F)F)c2)c2ccccc2c1=O,–,"inconclusive: 1.26 µM [cytotoxic, single point]"
Cc1cc(C(=O)NC2=NCCS2)cs1,–,"inconclusive: 12.6 µM [cytotoxic, single point]"
CC(C)Oc1ccc2c(=O)c3cc(C(=O)O)ccc3oc2c1,–,"inconclusive: 15.8 µM [cytotoxic, partial curve]"
Cc1ccc(C2=Nc3ccccc3N(CC(=O)Nc3ccccc3F)C(=O)C2)cc1C,–,"inconclusive: 15.8 µM [cytotoxic, partial curve]"
CCc1nn(CCCC(=O)N2CCN(c3cc(Cl)ccc3C)CC2)c(=O)c2cc3occc3n12,–,"inconclusive: 10 µM [cytotoxic, partial curve]"
C=CS(=O)(=O)c1ccc(Oc2ccc(S(=O)(=O)C=C)cc2)cc1,–,active: 10 µM
CC(=O)NC1CC(=O)N(c2ccc3c(c2)OCCO3)C1 (centres undefined),inactive: 10.2%,–
CS(=O)(=O)Nc1cccc(-c2ccc3ncnc(NCc4cccnc4)c3c2)c1,inactive: 12.3%,–
CCCCN1C(=O)c2[nH]nc(-c3ccccc3O)c2C1c1ccc(C(C)(C)C)cc1 (centres undefined),–,active: 12.6 µM
COc1ccc(-c2noc(N(c3cccc(Cl)c3)c3nc(-c4ccc(OC)c(OC)c4)no3)n2)cc1OC,–,"inconclusive: 1.26 µM [cytotoxic, partial curve, poor fit]"
CCCCCCCCCCCCCCCCCCOC[C@@H](COP(=O)([O-])OCC[N+](C)(C)C)OC,inactive: 14.8%,–
Cc1c(C(=O)NN2CCOCC2)nn(-c2ccc(Cl)cc2Cl)c1-c1ccc(I)cc1,inconclusive: -101% [cytotoxic],–
Cc1cc(C)nc(NC(=NCCc2c[nH]c3ccc(Cl)cc23)NC(=O)c2ccccc2C)n1,–,"inconclusive: 3.16 µM [cytotoxic, single point]"
CCOC(=O)c1c(NC(=O)c2ccc(S(=O)(=O)N3CCC(C)CC3)cc2)sc2c1CCN(CC)C2,–,"inconclusive: 0.005 µM [cytotoxic, full curve, poor fit]"
C=Cc1ccc(Cn2nc(-c3ccc(C)cc3)ccc2=O)cc1,–,"inconclusive: 25.1 µM [cytotoxic, single point]"
CCC(=O)N1CCN(c2ccc(NC(=O)c3cc4ccccc4o3)cc2Cl)CC1,–,"inconclusive: 25.1 µM [cytotoxic, single point]"
CCOC(=O)c1cc(-c2ccccc2)n(CCCC(=O)Nc2cccc(C)c2C)c1C,–,"inconclusive: 5.01 µM [cytotoxic, full curve]"
COc1ccc(-c2cc(=O)c3ccc(O)cc3o2)cc1,–,"inconclusive: 12.6 µM [cytotoxic, partial curve]"
Cc1cccc(Nc2nnc(SCC3CCCCO3)s2)c1 (centres undefined),–,"inconclusive: 17.8 µM [cytotoxic, single point]"

Structure (SMILES),"activity change, negative = cell killing",Potency
CCc1ccc(CN2CCc3nc(Nc4ccccc4)ncc3C2)cc1,–,"inconclusive: 7.94 µM [cytotoxic, single point]"
O=C(N/N=C/c1c(O)n(-c2ccccc2Cl)c(=O)c2ccccc12)C1COc2ccccc2O1 (centres undefined),–,"inconclusive: 12.6 µM [cytotoxic, single point]"
CC(=O)Nc1ccc(NC(=O)c2cc3sccc3n2Cc2ccc(F)cc2)cc1,–,"inconclusive: 15.8 µM [cytotoxic, partial curve]"
C=C/C(C)=C/[C@]1(C)SC(=O)C(C)=C1O,inactive: 22.4%,–
CCc1ccc(NC(=O)CC2C(=O)N(c3ccc(Cl)cc3)C(=O)N2Cc2ccco2)cc1 (centres undefined),–,"inconclusive: 20 µM [cytotoxic, single point]"
CC(C)(C)n1ncc2c(=O)n(CC(=O)c3ccccc3)cnc21,–,"inconclusive: 0.398 µM [cytotoxic, full curve]"
CCCCN(CC)C(=O)CSc1nc2n[nH]c(C)c2c(=N)n1-c1cccc(Cl)c1,inactive: -5.53%,–
CCOC(=O)c1[nH]c(C)c(CCC(=O)N2CCN(c3cccc(OC)c3)CC2)c1C,inactive: -13.6%,–
Nc1nnc(SCCCC(=O)c2ccc(Br)cc2)s1,–,"inconclusive: 0.005 µM [cytotoxic, full curve, poor fit]"
O=C(Nc1ccc2c(c1)OCO2)c1cccs1,–,"inconclusive: 10 µM [cytotoxic, partial curve]"
COC(=O)c1ccc(NC(=O)CC2C(=O)N(c3cccc(OC)c3)C(=O)N2Cc2cccs2)cc1 (centres undefined),–,"inconclusive: 1.58 µM [cytotoxic, partial curve, poor fit]"
OCCN1CCN(C(c2cccs2)c2ccc3cccnc3c2O)CC1 (centres undefined),–,"inconclusive: 31.6 µM [cytotoxic, single point]"
CCSc1nnc(NC(=O)c2cccs2)s1,–,"inconclusive: 10 µM [cytotoxic, partial curve]"
CCN(CCCNC(=O)Cn1ncc2c3ccccc3n(C)c2c1=O)Cc1ccccc1,–,"inconclusive: 12.6 µM [cytotoxic, partial curve]"
CC(C)c1ccc(O)c(O)c(=O)c1 (tested in a mixture with another compound),–,"inconclusive: 3.98 µM [cytotoxic, single point]"
CC1CCCN(C(=O)CSc2c3c(nc4cc(Cl)ccc24)CCCC3)C1 (centres undefined),–,"inconclusive: 25.1 µM [cytotoxic, single point]"
Clc1cccc(-c2ccc(CNCCSc3nnnn3-c3ccccc3)o2)c1,inactive: 3.82%,–
Cc1ccc(C)c(NC(=O)N2CCN(C(=O)c3nsc4ccccc34)CC2)c1,inactive: -5.9%,–
COc1cc(Cl)c(C)cc1NC(=O)C1CCN(c2nc3ccccc3n3cccc23)CC1,–,"inconclusive: 31.6 µM [cytotoxic, single point]"
NC(=O)C1CCN(C(=O)c2ccc(NC(=O)c3nsc4ccccc34)cc2)CC1,–,active: 2.51 µM
Cc1c(C(=O)Nc2cccc(C(F)(F)F)c2)oc2ccc3c(c12)C(=O)CC(C)(C)O3,–,active: 15.8 µM
Cc1ccc(Nc2nc(CSc3nnnn3C)cs2)cc1,–,"inconclusive: 15.8 µM [cytotoxic, partial curve]"
CCCCn1c(=N)n(CC(O)COc2cccc(C)c2)c2ccccc21 (centres undefined),–,"inconclusive: 31.6 µM [cytotoxic, single point]"
